The whole screen tested about 52,000 compounds, of which about 4,300 (8.3%) were called active. No stated cut-off is given here; in the data, active means survival mostly below about 52% (no sharp cut-off); inactive means mostly above about 56%. Some of the results follow.

Drawing on PubChem BioAssay AID463173 (ICCB-Longwood Screening Facility, Harvard Medical School, 2010), this text covers survival for 92 compounds.

For the assay, the system named is DeltatarO mutant. The assay is described as follows: S. aureus survival, RN4220 and DeltatarO strains – OD600, teichoic acid synthesis inhibitors, primary screen (AID 463173). The following applies: S. aureus RN4220 wild type/DeltatarO growth, OD600, 18 h, hits give low values, screened at 18.75 µg/mL (by protocol).
As to `N#CC1(c2ccccc2)CCCN1C(=O)c1ccco1` (configuration not stated), the survival was inactive: 58%. Under `Nc1c(C(=O)Nc2cccc(F)c2)c2ccccn2c1C(=O)c1ccccc1` stands inactive: 78%; under `CC(=O)c1ccc(NC(=O)CN(C)S(=O)(=O)c2cnc[nH]2)cc1`, inactive: 100%. Under `Cc1cc(Cl)ccc1OCC(=O)N1CCC(c2nc3ccccc3s2)CC1` stands active: 21%; under `COc1ccc(CNC(=O)Nc2cn(CC(C)C)c(=O)c3ccccc23)cc1`, inactive: 75%; under `CN(C)CCN1C(=O)C(=O)/C(=C(/O)c2ccc(S(=O)(=O)N(C)C)cc2)C1c1ccccc1` (configuration not stated), inactive: 57%. In the case of `O=C(Nc1cccc(-c2nc3ccccc3o2)c1)C(F)(F)F`, the survival was inactive: 61%. Under `Cc1ccc(OCCSc2nc(C)c(Cc3ccccc3)c(=O)[nH]2)cc1` stands inactive: 58%; under `Cc1ccn2c(Nc3ccc(C(C)C)cc3)c(-c3cccnc3)nc2c1`, inactive: 60%; under `Cc1cc(C)c(NC(=O)CSc2nncn3c2cc2oc(C)cc23)c(C)c1`, inactive: 65%.

For the compound `Cc1cc(-c2ccccc2)n2nc(-c3ccccc3)cc2n1`, the survival was active: -3%. To `CN(C)CCNC(=O)C(=O)NCC(c1ccc2c(c1)OCO2)N1CCOCC1` (configuration not stated) belongs inactive: 69%. Under `Cc1c(C(=O)O)oc2c1-c1nn(Cc3ccc(Cl)cc3)cc1CC2` stands inactive: 89%; under `CCOc1ccc(C(c2c(O)cc(C)n(Cc3ccco3)c2=O)N2CCCCC2)cc1` (configuration not stated), inactive: 73%; under `Cc1ccc2cccc(NC(=O)C(C)Oc3ccc(Cl)cc3Cl)c2n1` (configuration not stated), active: -2%. `O=C(NCCC1CCCC1)c1cccs1`: the survival was inactive: 82%. Consider `COc1cccc(CNS(=O)(=O)c2ccc3c(c2)C(C(C)C)C(=O)N3)c1` (configuration not stated), for which the survival was inactive: 129%.

Take `CCCCOc1ccc(C(=O)OCC2CCCN3CCCCC23)cc1OC` (configuration not stated): the survival was inactive: 107%. Under `COc1ccccc1C(=O)Nc1c(C(=O)Nc2ccccc2F)oc2ccccc12` stands active: 13%; under `Cc1ccc(NC(=O)N2CCN(c3cc(-c4noc(C)n4)ccc3C)CC2)c(F)c1`, active: -5%; under `CCC(=O)Oc1ccc(C2Nc3ccccc3-c3nnc(SC)nc3O2)cc1` (configuration not stated), inactive: 73%. Under `Cc1ccc(S(=O)(=O)Nc2cc3c(cc2N2CCOCC2)n(C)c(=O)n3C)cc1` stands inactive: 90%; under `Cc1ccc2nc(-c3cc(NC(=O)COc4ccc(C)c(C)c4)ccc3Cl)oc2c1`, active: 30%; under `COC(=O)C1CCN(S(=O)(=O)c2ccc(N3CCCCS3(=O)=O)cc2)CC1`, inactive: 78%. To `COC(=O)c1cc(C)nc2c1c(=O)nc(SCc1ccccc1C)n2C1CC1` belongs inactive: 87%. `Cc1cccc(NC(=O)C(Cc2ccccc2)NS(=O)(=O)c2ccc3c(c2)c(=O)n(C)c(=O)n3C)c1` (configuration not stated): the survival is inactive: 70%. To `Cc1ccc(C(=O)NCC(c2ccc3c(c2)OCO3)N2CCOCC2)cc1` (configuration not stated) belongs inactive: 93%. Under `Cc1c(-c2nc(-c3ccc4c(c3)OCO4)no2)nnn1-c1ccc(C(C)C)cc1` stands inactive: 92%; under `CCc1nn(CCCC(=O)N2CCN(c3cccc(OC)c3)CC2)c(=O)c2cc3occc3n12`, inactive: 125%; under `O=C(CCCc1ccccc1)NC1CC(=O)N(c2ccc(F)cc2)C1` (configuration not stated), inactive: 73%. For `CC(=O)c1cccc(NS(=O)(=O)c2cc3c(cc2C)N(C(C)=O)CCO3)c1`, the survival is inactive: 95%.

As to `Cc1ccc(NC(=O)N2CCC(CN3CCCC3)CC2)c(C)c1`, the survival was inactive: 80%. For the compound `Cc1ccc(-c2nc(C(=O)NCc3ccccc3Cl)c3n2CCCCC3)cc1`, the survival was inactive: 65%. With `CCc1cccc(NC(=O)c2ccc(NC(=O)N3CCSc4ncccc43)cc2)c1`, the survival is active: -1%.

Take `Cn1nc(OCC(N)=O)ccc1=O`: the survival was inactive: 107%.

On to `O=C1c2cccc3cccc(c23)N1c1ccccc1`, for which the survival is inactive: 77%. Under `COc1cccc(NC(=O)CSc2nc(-c3ccccc3Cl)nc3c2Cc2c(CO)cnc(C)c2O3)c1` stands inactive: 113%. Turning to `CCOc1ccc(-n2c(SCC(N)=O)nc3c(oc4ccccc43)c2=O)cc1`, the survival is inactive: 76%. Under `COc1ccc(-c2cc(-c3ccccc3)nc(SCC(=O)Nc3ccccc3F)c2C#N)cc1` stands inactive: 140%; under `CCOC(=O)C1=C(CS(=O)(=O)c2ccc(OC)c(Cl)c2)NC(=O)NC1c1cccc(OC)c1` (configuration not stated), inactive: 59%; under `O=C(Nc1nncs1)c1ccc(F)cc1`, inactive: 80%. Under `O=C(O)CNS(=O)(=O)c1ccc2ccccc2c1` stands inactive: 91%; under `Cc1ccc(S(=O)Cc2nc(-c3ccc(C(=O)NCc4cccc(C)c4)cc3)oc2C)cc1` (configuration not stated), inactive: 97%. As to `O=C(CCn1nc(-c2ccc(Cl)cc2)ccc1=O)NCCc1ccccc1`, the survival was inactive: 78%. For the compound `CC(=O)Nc1c(C)nn(-c2ccccc2)c1N1CCC(C(=O)NCc2ccccc2Cl)CC1`, the survival is active: -2%. To `COc1ccc(CCN2C(=O)c3[nH]nc(-c4ccccc4O)c3C2c2ccc(OC)c(OC)c2)cc1` (configuration not stated) belongs active: 45%; to `CCOC(=O)c1c(NC(=O)CSc2cn(CCNC(=O)c3c(F)cccc3F)c3ccccc23)sc2c1CCC2`, inactive: 93%; to `CCOC(=O)COc1ccc(F)cc1C(=O)c1ccn2nc(-c3ccc(Cl)cc3)cc2n1`, inactive: 99%. `CCOC(=O)c1noc2ncnc(Nc3cccc(OC)c3)c12`: the survival was inactive: 73%. With `O=C(COc1ccccc1Cl)Nc1ccc2nc(SCC(=O)N3CCCC3)sc2c1`, the survival was inactive: 49%.

Turning to `O=C(NCc1noc2ccccc12)N1CCN(c2ccccc2)CC1`, the survival was inactive: 44%.

For `CCc1ccccc1NC(=O)N1CCCn2nc(C)cc21`, the survival was inactive: 97%. On to `O=C(NCC(c1ccco1)S(=O)(=O)c1cccs1)c1ccc(F)c(F)c1` (configuration not stated), for which the survival is inactive: 75%.

With `CCCn1c(C(=O)OC)cc2c1ccn2C`, the survival is inactive: 78%. With `Cc1nc(-c2ccccc2)sc1-c1ccc(SCC(=O)NCc2ccccc2Cl)nn1`, the survival was inactive: 26%. To `CC1CCN(c2nn3c(=O)c(C(=O)NC(C)C)cnc3s2)CC1` belongs inactive: 93%; to `O=C(Nc1ccc(NC(=O)C2CC23CCC3)cc1)C1CC12CCC2` (configuration not stated), inactive: 94%; to `COc1ccc(OC)c(C2=NS(=O)(=O)N(C)C(C(=O)Nc3ccc(F)cc3F)=C2)c1`, inactive: 72%. With `N#Cc1nc(-c2ccc(COc3ccc(Cl)cc3)o2)oc1N1CCC(C(N)=O)CC1`, the survival was active: 34%.

As to `Cc1ccc(C)c(NC(=O)C2CCCN(c3ncnc4onc(C)c34)C2)c1` (configuration not stated), the survival is inactive: 94%.

As for `O=C(Cn1c(=O)n(-c2ccccc2)c(=O)c2c3c(sc21)CCCC3)Nc1ccc(F)cc1F`, the survival was inactive: 90%.

On to `COc1ccc(OC)c(S(=O)(=O)NCCS(=O)(=O)N2CCN(c3ccccc3)CC2)c1`, for which the survival was inactive: 80%.

On to `COc1cccc(CNC(=O)c2cccc(-n3c(C)nc4cccnc43)c2)c1OC`, for which the survival was inactive: 80%. To `O=C(O)CCc1ccc(-c2ccccc2)n1Cc1ccco1` belongs inactive: 106%; to `CCCCCn1c(CN2CCN(c3ccc(OC)cc3)CC2)nc2c1c(=O)[nH]c(=O)n2C`, inactive: 73%. `Cc1ccc(Cl)cc1NC(=O)Nc1cccc(OCc2cc(=O)n3ccccc3n2)c1`: the survival is inactive: 72%. Take `COc1ccc(-n2c(-c3ccco3)nc3c(cnn3-c3ccccc3Cl)c2=O)cc1`: the survival was inactive: 132%. For `Cc1nn(C)c2c1c(-c1ccccc1)cc(=O)n2CC(=O)NC(C)c1ccccc1` (configuration not stated), the survival is inactive: 78%. Under `COc1ccc(OCC(=O)Nc2ccc(N3CCN(S(C)(=O)=O)CC3)cc2)cc1` stands inactive: 97%; under `CCOc1ccc(-c2cc3nc(C4CCN(C(=O)OC(C)(C)C)CC4)c(C(=O)Nc4cc(OC)ccc4OC)cn3n2)cc1`, inactive: 67%. Under `CCN1CCOC(=O)C1CC(=O)Nc1ccc(Br)cc1` (configuration not stated) stands active: 44%; under `Cc1ccc(Cl)cc1NC(=O)c1sc(-n2nc(C)c(Cc3ccc4c(c3)OCO4)c2C)nc1C`, inactive: 85%; under `O=C(Cn1c(=O)n(Cc2ccccc2)c(=O)c2sc3ccccc3c21)Nc1ccccc1`, inactive: 71%.

Turning to `N#C/C(=C\c1ccco1)S(=O)(=O)c1ccc(Cl)cc1`, the survival was inactive: 71%. In the case of `CCC(=O)C1=C(c2ccc(OC)c(OC)c2)N(C(=O)CC)n2c(nnc2-c2ccc(C)cc2)S1`, the survival is inactive: 68%.

On to `O=C1CCC(=O)N1C(c1ccccc1)c1ccccc1`, for which the survival is inactive: 79%. To `CN(C)CCCC1(O)c2ccccc2CCc2ccccc21` belongs inactive: 85%; to `CC(=O)c1ccc(N2CCN(c3ccc4cc(S(=O)(=O)N5CCCCC5)ccc4n3)CC2)cc1`, inactive: 90%; to `COc1ccc(-c2nc(CS(=O)(=O)CC(=O)NCCc3ccc(C)cc3)c(C)o2)cc1`, inactive: 85%. Turning to `CCOC(=O)c1ccc(NC(=O)CSc2nc3ccccc3c(=O)n2CCC(=O)NC2CCCCC2)cc1`, the survival is inactive: 91%. Consider `COc1ccc(C)cc1NC(=O)CC1NCCNC1=O` (configuration not stated), for which the survival is active: 76%. Under `Cc1cc(=O)n(Cc2ccccc2)c2c1c(C)nn2C` stands active: 20%; under `COCCNC(=O)c1ccc2nc(Cc3ccccc3)oc2c1`, inactive: 92%; under `CC(C)N(CCCNC(=O)Cn1ncc2c([nH]c3ccccc32)c1=O)Cc1ccccc1`, inactive: 102%. For the compound `CN(C)C(=O)CN(c1ccccc1)S(=O)(=O)c1ccccc1`, the survival was inactive: 96%. Under `Cc1cc(C)c2c(=O)cc(C(=O)Nc3sc4c(c3C(=O)NCC3CCCO3)CCCC4)oc2c1` (configuration not stated) stands inactive: 49%; under `Cc1ccc(Nc2nnc(-c3ccc(C)c(S(=O)(=O)N4CCOCC4)c3)c3ccccc23)cc1`, inactive: 75%.

Turning to `CCOc1ccc(CNC(=O)CS(=O)(=O)c2cccc3nsnc23)cc1`, the survival was inactive: 104%. `COc1ccccc1-c1nc(SCC(=O)NCc2ccccc2)c2c(=O)n(C)c(=O)n(C)c2n1`: the survival was inactive: 80%.

As to `O=C(CSC1=NC2CCCCC2N1)N1CCOCC1` (configuration not stated), the survival is inactive: 83%.

Consider `COc1ccccc1-c1noc(-c2ccc(NC3CCCC3)c([N+](=O)[O-])c2)n1`, for which the survival is active: 43%. To `Cc1cc2nc(-c3ccc(NC(=O)c4ccccc4F)cc3)oc2cc1C` belongs inactive: 66%.
